{"source": "the supplement of paper PMC12297408", "system": "Plasmodium falciparum NF54/iGP1_RE9H ulg8 stage V gametocytes", "assay": "gametocyte viability (luciferase signal relative to DMSO control) (% of DMSO control); higher = less gametocytocidal activity, active = 50 or less", "details": "exposure time: 72 h", "in_short": "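NF54/iGP1_RE9Hulg8 stage V gametocytes (day 12; ~2.5% gametocytemia, 3% hematocrit) in medium with 0.5% Albumax II were added to 96-well plates of nanolitre-spotted compounds (10 mM DMSO stocks), giving 10 µM or 1 µM, one well each. Plates were incubated 72 h at 37 °C. Then 90 µl was mixed with 10 µl D-luciferin (30 mg/ml) and luminescence was read on an IVIS Lumina II. Viability is relative to the mean of plate DMSO vehicle controls.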", "note": "Where a name gives a salt, the structure may show the parent alone. Screen size: about 1,300 compounds; about 40 (3%) showed activity. This is one part of the list.", "data": [{"compound": "CN(N=O)C(=O)N[C@H]1C(O)O[C@H](CO)[C@@H](O)[C@@H]1O", "note": "(mixture of isomers) [Streptozotocin]", "values": [{"measurement": "gametocyte viability", "setting": "concentration: 1 µM", "result": "inactive: 84.7"}, {"measurement": "gametocyte viability", "setting": "concentration: 10 µM", "result": "inactive: 92.1"}]}, {"compound": "CCCCC(=O)O[C@H]1CC[C@H]2[C@@H]3CCc4cc(O)ccc4[C@H]3CC[C@]12C", "note": "[Estradiol Valerate]", "values": [{"measurement": "gametocyte viability", "setting": "concentration: 1 µM", "result": "inactive: 87.7"}, {"measurement": "gametocyte viability", "setting": "concentration: 10 µM", "result": "inactive: 80.2"}]}, {"compound": "Cn1c(NCCN(CCO)CCCc2ccc([N+](=O)[O-])cc2)cc(=O)n(C)c1=O", "note": "[Nifekalant]", "values": [{"measurement": "gametocyte viability", "setting": "concentration: 1 µM", "result": "inactive: 76.8"}, {"measurement": "gametocyte viability", "setting": "concentration: 10 µM", "result": "inactive: 64.7"}]}, {"compound": "N=C(N)c1ccc(OCCCCCOc2ccc(C(=N)N)cc2)cc1", "note": "[Pentamidine isethionate]", "values": [{"measurement": "gametocyte viability", "setting": "concentration: 1 µM", "result": "inactive: 86.2"}, {"measurement": "gametocyte viability", "setting": "concentration: 10 µM", "result": "inactive: 77.7"}]}, {"compound": "Fc1ccc(C(c2ccc(F)cc2)N2CCN(C/C=C/c3ccccc3)CC2)cc1", "note": "[Flunarizine dihydrochloride]", "values": [{"measurement": "gametocyte viability", "setting": "concentration: 1 µM", "result": "inactive: 81.5"}, {"measurement": "gametocyte viability", "setting": "concentration: 10 µM", "result": "inactive: 95.1"}]}, {"compound": "CN1CCc2c(c3ccccc3n2Cc2ccccc2)C1", "note": "[Mebhydroline 1,5-naphtalenedisulfonate]", "values": [{"measurement": "gametocyte viability", "setting": "concentration: 1 µM", "result": "inactive: 88.8"}, {"measurement": "gametocyte viability", "setting": "concentration: 10 µM", "result": "inactive: 83.3"}]}, {"compound": "Nc1nc(Cl)nc2c1ncn2[C@H]1C[C@H](O)[C@@H](CO)O1", "note": "[Cladribine]", "values": [{"measurement": "gametocyte viability", "setting": "concentration: 1 µM", "result": "inactive: 82.9"}, {"measurement": "gametocyte viability", "setting": "concentration: 10 µM", "result": "inactive: 85.7"}]}, {"compound": "CN[C@@H]1[C@H](O[C@H]2[C@H](O[C@H]3[C@H](O)[C@@H](O)[C@H](N=C(N)N)[C@@H](O)[C@@H]3N=C(N)N)O[C@@H](C)[C@]2(O)C=O)O[C@@H](CO)[C@H](O)[C@H]1O", "note": "[Streptomycin sulfate]", "values": [{"measurement": "gametocyte viability", "setting": "concentration: 1 µM", "result": "inactive: 82.2"}, {"measurement": "gametocyte viability", "setting": "concentration: 10 µM", "result": "inactive: 84.8"}]}, {"compound": "OCCOCCN1CCN(C2=Nc3ccccc3Sc3ccccc32)CC1", "note": "[Quetiapine]", "values": [{"measurement": "gametocyte viability", "setting": "concentration: 1 µM", "result": "inactive: 90.5"}, {"measurement": "gametocyte viability", "setting": "concentration: 10 µM", "result": "inactive: 78.8"}]}, {"compound": "CC1(C)S[C@@H]2[C@H](NC(=O)[C@H](N)c3ccc(O)cc3)C(=O)N2[C@H]1C(=O)O", "note": "[Amoxicillin]", "values": [{"measurement": "gametocyte viability", "setting": "concentration: 1 µM", "result": "inactive: 80.6"}, {"measurement": "gametocyte viability", "setting": "concentration: 10 µM", "result": "inactive: 82.5"}]}, {"compound": "COc1cccc2c1C(=O)c1c(O)c3c(c(O)c1C2=O)C[C@@](O)(C(=O)CO)C[C@@H]3O[C@H]1C[C@H](N)[C@H](O)[C@H](C)O1", "note": "[Doxorubicin hydrochloride]", "values": [{"measurement": "gametocyte viability", "setting": "concentration: 1 µM", "result": "inactive: 64.5"}, {"measurement": "gametocyte viability", "setting": "concentration: 10 µM", "result": "active: 19"}]}, {"compound": "CCC(=O)O[C@@H](O[P@](=O)(CCCCc1ccccc1)CC(=O)N1C[C@H](C2CCCCC2)C[C@H]1C(=O)O)C(C)C", "note": "[Fosinopril]", "values": [{"measurement": "gametocyte viability", "setting": "concentration: 1 µM", "result": "inactive: 82.1"}, {"measurement": "gametocyte viability", "setting": "concentration: 10 µM", "result": "inactive: 83.2"}]}, {"compound": "Cc1cc2c(cc1S(N)(=O)=O)S(=O)(=O)CCC2", "note": "[Meticrane]", "values": [{"measurement": "gametocyte viability", "setting": "concentration: 1 µM", "result": "inactive: 88.7"}, {"measurement": "gametocyte viability", "setting": "concentration: 10 µM", "result": "inactive: 83.8"}]}, {"compound": "NCCNCCNCCNCCN", "note": "[Tetraethylenepentamine pentahydrochloride]", "values": [{"measurement": "gametocyte viability", "setting": "concentration: 1 µM", "result": "inactive: 97.2"}, {"measurement": "gametocyte viability", "setting": "concentration: 10 µM", "result": "inactive: 94.6"}]}, {"compound": "CC(C)c1ccc2oc3nc(N)c(C(=O)O)cc3c(=O)c2c1", "note": "[Amlexanox]", "values": [{"measurement": "gametocyte viability", "setting": "concentration: 1 µM", "result": "inactive: 80"}, {"measurement": "gametocyte viability", "setting": "concentration: 10 µM", "result": "inactive: 81.5"}]}, {"compound": "CC1(C)S[C@@H]2[C@H](NC(=O)[C@H](NC(=O)N3CCNC3=O)c3ccccc3)C(=O)N2[C@H]1C(=O)O", "note": "[Azlocillin sodium salt]", "values": [{"measurement": "gametocyte viability", "setting": "concentration: 1 µM", "result": "inactive: 87.1"}, {"measurement": "gametocyte viability", "setting": "concentration: 10 µM", "result": "inactive: 85.9"}]}, {"compound": "COC(=O)Nc1nc2cc(C(=O)c3ccccc3)ccc2[nH]1", "note": "[Mebendazole]", "values": [{"measurement": "gametocyte viability", "setting": "concentration: 1 µM", "result": "inactive: 90.9"}, {"measurement": "gametocyte viability", "setting": "concentration: 10 µM", "result": "inactive: 100"}]}, {"compound": "O=C(O)c1cccnc1Nc1cccc(C(F)(F)F)c1", "note": "[Niflumic acid]", "values": [{"measurement": "gametocyte viability", "setting": "concentration: 1 µM", "result": "inactive: 86.5"}, {"measurement": "gametocyte viability", "setting": "concentration: 10 µM", "result": "inactive: 81.3"}]}, {"compound": "Cc1oncc1C(=O)Nc1ccc(C(F)(F)F)cc1", "note": "[Leflunomide]", "values": [{"measurement": "gametocyte viability", "setting": "concentration: 1 µM", "result": "inactive: 76.5"}, {"measurement": "gametocyte viability", "setting": "concentration: 10 µM", "result": "inactive: 79.8"}]}, {"compound": "COc1ccc(C(Cl)=C(c2ccc(OC)cc2)c2ccc(OC)cc2)cc1", "note": "[Chlorotrianisene]", "values": [{"measurement": "gametocyte viability", "setting": "concentration: 1 µM", "result": "inactive: 91.8"}, {"measurement": "gametocyte viability", "setting": "concentration: 10 µM", "result": "inactive: 81.4"}]}, {"compound": "CCOC(=O)[C@H](CCc1ccccc1)N[C@@H](C)C(=O)N1Cc2ccccc2C[C@H]1C(=O)O", "note": "[Quinapril HCl]", "values": [{"measurement": "gametocyte viability", "setting": "concentration: 1 µM", "result": "inactive: 98.4"}, {"measurement": "gametocyte viability", "setting": "concentration: 10 µM", "result": "inactive: 98.4"}]}, {"compound": "CC(CCc1ccccc1)NCC(O)c1ccc(O)c(C(N)=O)c1", "note": "(stereo unspecified) [Labetalol hydrochloride]", "values": [{"measurement": "gametocyte viability", "setting": "concentration: 1 µM", "result": "inactive: 96.5"}, {"measurement": "gametocyte viability", "setting": "concentration: 10 µM", "result": "inactive: 94.4"}]}, {"compound": "Cc1onc(-c2c(Cl)cccc2Cl)c1C(=O)N[C@@H]1C(=O)N2[C@@H]1SC(C)(C)[C@@H]2C(=O)O", "note": "[Dicloxacillin sodium salt hydrate]", "values": [{"measurement": "gametocyte viability", "setting": "concentration: 1 µM", "result": "inactive: 89.9"}, {"measurement": "gametocyte viability", "setting": "concentration: 10 µM", "result": "inactive: 84.8"}]}, {"compound": "CN1C(C)(C)CCCC1(C)C", "note": "[Pempidine tartrate]", "values": [{"measurement": "gametocyte viability", "setting": "concentration: 1 µM", "result": "inactive: 99.3"}, {"measurement": "gametocyte viability", "setting": "concentration: 10 µM", "result": "inactive: 97.1"}]}, {"compound": "CC[N+](C)(C)Cc1ccccc1Br", "note": "[Bretylium tosylate]", "values": [{"measurement": "gametocyte viability", "setting": "concentration: 1 µM", "result": "inactive: 100"}, {"measurement": "gametocyte viability", "setting": "concentration: 10 µM", "result": "inactive: 100"}]}, {"compound": "C[N+](C)(C)CCCCCC[N+](C)(C)C", "note": "[Hexamethonium dibromide dihydrate]", "values": [{"measurement": "gametocyte viability", "setting": "concentration: 1 µM", "result": "inactive: 87.5"}, {"measurement": "gametocyte viability", "setting": "concentration: 10 µM", "result": "inactive: 93.5"}]}, {"compound": "CN(C)/N=N/c1[nH]cnc1C(N)=O", "note": "[Dacarbazine]", "values": [{"measurement": "gametocyte viability", "setting": "concentration: 1 µM", "result": "inactive: 87.7"}, {"measurement": "gametocyte viability", "setting": "concentration: 10 µM", "result": "inactive: 90.7"}]}, {"compound": "COc1ccc([C@@H]2CC(=O)c3c(O)cc(O[C@@H]4O[C@H](CO[C@@H]5O[C@@H](C)[C@H](O)[C@@H](O)[C@H]5O)[C@@H](O)[C@H](O)[C@H]4O)cc3O2)cc1O", "note": "[Hesperidin]", "values": [{"measurement": "gametocyte viability", "setting": "concentration: 1 µM", "result": "inactive: 78.3"}, {"measurement": "gametocyte viability", "setting": "concentration: 10 µM", "result": "inactive: 85.2"}]}]}
